± gives the standard deviation of the averaged measurements. Laboratory Escherichia coli strains with one amino-acid change in an essential protein, pooled on minimal glucose agar with carbenicillin or gentamicin at twice the control MIC (plus kanamycin and chloramphenicol for the plasmids), 48 h. Fold change of barcode share against drug-free plates; higher = less susceptible. Active = above 20 in both replicates (the paper's putatively resistant). '<' = one read or none on drug, '>' = one read or none on a drug-free plate. Shares are relative, so most strains fall below 1 when a few take over. Listed are strains with at least 15 reads on both drug-free plates, and hits; most hits rest on fewer reference reads. Replicate rank correlation about 0.5. Edits are read from barcodes. Bounds are passed on as bounds.

The labels stand for the following.
B1: lpxD F141A (protein)
chain: MPSIRLADLAQQLDAELHGDGDIVITGVASMQSAQTGHITFMVNPKYREHLGLCQASAVVMTQDDLPFAKSAALVVKNPYLTYARMAQILDTTPQPAQNIAPSAVIDATAKLGNNVSIGANAVIESGVELGDNVIIGAGCAVGKNSKIGAGSRLWANVTIYHEIQIGQNCLIQSGTVVGADGFGYANDRGNWVKIPQIGRVIIGDRVEIGACTTIDRGALDDTIIGNGVIIDNQCQIAHNVVIGDNTAVAGGVIMAGSLKIGRYCMIGGASVINGHMEICDKVTVTGMGMVMRPITEPGVYSSGIPLQPNKVWRKTAALVMNIDDMSKRLKSLERKVNQQD
B2: lpxD V201D (protein)
chain: MPSIRLADLAQQLDAELHGDGDIVITGVASMQSAQTGHITFMVNPKYREHLGLCQASAVVMTQDDLPFAKSAALVVKNPYLTYARMAQILDTTPQPAQNIAPSAVIDATAKLGNNVSIGANAVIESGVELGDNVIIGAGCFVGKNSKIGAGSRLWANVTIYHEIQIGQNCLIQSGTVVGADGFGYANDRGNWVKIPQIGRDIIGDRVEIGACTTIDRGALDDTIIGNGVIIDNQCQIAHNVVIGDNTAVAGGVIMAGSLKIGRYCMIGGASVINGHMEICDKVTVTGMGMVMRPITEPGVYSSGIPLQPNKVWRKTAALVMNIDDMSKRLKSLERKVNQQD
B3: lpxD V201A (protein)
chain: MPSIRLADLAQQLDAELHGDGDIVITGVASMQSAQTGHITFMVNPKYREHLGLCQASAVVMTQDDLPFAKSAALVVKNPYLTYARMAQILDTTPQPAQNIAPSAVIDATAKLGNNVSIGANAVIESGVELGDNVIIGAGCFVGKNSKIGAGSRLWANVTIYHEIQIGQNCLIQSGTVVGADGFGYANDRGNWVKIPQIGRAIIGDRVEIGACTTIDRGALDDTIIGNGVIIDNQCQIAHNVVIGDNTAVAGGVIMAGSLKIGRYCMIGGASVINGHMEICDKVTVTGMGMVMRPITEPGVYSSGIPLQPNKVWRKTAALVMNIDDMSKRLKSLERKVNQQD
B4: lpxD F141Q (protein)
chain: MPSIRLADLAQQLDAELHGDGDIVITGVASMQSAQTGHITFMVNPKYREHLGLCQASAVVMTQDDLPFAKSAALVVKNPYLTYARMAQILDTTPQPAQNIAPSAVIDATAKLGNNVSIGANAVIESGVELGDNVIIGAGCQVGKNSKIGAGSRLWANVTIYHEIQIGQNCLIQSGTVVGADGFGYANDRGNWVKIPQIGRVIIGDRVEIGACTTIDRGALDDTIIGNGVIIDNQCQIAHNVVIGDNTAVAGGVIMAGSLKIGRYCMIGGASVINGHMEICDKVTVTGMGMVMRPITEPGVYSSGIPLQPNKVWRKTAALVMNIDDMSKRLKSLERKVNQQD
B5: lpxD F141W (protein)
chain: MPSIRLADLAQQLDAELHGDGDIVITGVASMQSAQTGHITFMVNPKYREHLGLCQASAVVMTQDDLPFAKSAALVVKNPYLTYARMAQILDTTPQPAQNIAPSAVIDATAKLGNNVSIGANAVIESGVELGDNVIIGAGCWVGKNSKIGAGSRLWANVTIYHEIQIGQNCLIQSGTVVGADGFGYANDRGNWVKIPQIGRVIIGDRVEIGACTTIDRGALDDTIIGNGVIIDNQCQIAHNVVIGDNTAVAGGVIMAGSLKIGRYCMIGGASVINGHMEICDKVTVTGMGMVMRPITEPGVYSSGIPLQPNKVWRKTAALVMNIDDMSKRLKSLERKVNQQD
B6: lpxD M255A (protein)
chain: MPSIRLADLAQQLDAELHGDGDIVITGVASMQSAQTGHITFMVNPKYREHLGLCQASAVVMTQDDLPFAKSAALVVKNPYLTYARMAQILDTTPQPAQNIAPSAVIDATAKLGNNVSIGANAVIESGVELGDNVIIGAGCFVGKNSKIGAGSRLWANVTIYHEIQIGQNCLIQSGTVVGADGFGYANDRGNWVKIPQIGRVIIGDRVEIGACTTIDRGALDDTIIGNGVIIDNQCQIAHNVVIGDNTAVAGGVIAAGSLKIGRYCMIGGASVINGHMEICDKVTVTGMGMVMRPITEPGVYSSGIPLQPNKVWRKTAALVMNIDDMSKRLKSLERKVNQQD
B7: lpxD M255Q (protein)
chain: MPSIRLADLAQQLDAELHGDGDIVITGVASMQSAQTGHITFMVNPKYREHLGLCQASAVVMTQDDLPFAKSAALVVKNPYLTYARMAQILDTTPQPAQNIAPSAVIDATAKLGNNVSIGANAVIESGVELGDNVIIGAGCFVGKNSKIGAGSRLWANVTIYHEIQIGQNCLIQSGTVVGADGFGYANDRGNWVKIPQIGRVIIGDRVEIGACTTIDRGALDDTIIGNGVIIDNQCQIAHNVVIGDNTAVAGGVIQAGSLKIGRYCMIGGASVINGHMEICDKVTVTGMGMVMRPITEPGVYSSGIPLQPNKVWRKTAALVMNIDDMSKRLKSLERKVNQQD
B8: lpxD V201W (protein)
chain: MPSIRLADLAQQLDAELHGDGDIVITGVASMQSAQTGHITFMVNPKYREHLGLCQASAVVMTQDDLPFAKSAALVVKNPYLTYARMAQILDTTPQPAQNIAPSAVIDATAKLGNNVSIGANAVIESGVELGDNVIIGAGCFVGKNSKIGAGSRLWANVTIYHEIQIGQNCLIQSGTVVGADGFGYANDRGNWVKIPQIGRWIIGDRVEIGACTTIDRGALDDTIIGNGVIIDNQCQIAHNVVIGDNTAVAGGVIMAGSLKIGRYCMIGGASVINGHMEICDKVTVTGMGMVMRPITEPGVYSSGIPLQPNKVWRKTAALVMNIDDMSKRLKSLERKVNQQD
B9: aroD I11W (protein)
chain: MKTVTVKDLVWGTGAPKIIVSLMAKDIASVKSEALAYREADFDILEWRVDHYADLSNVESVMAAAKILRETMPEKPLLFTFRSAKEGGEQAISTEAYIALNRAAIDSGLVDMIDLELFTGDDQVKETVAYAHAHDVKVVMSNHDFHKTPEAEEIIARLRKMQSFDADIPKIALMPQSTSDVLTLLAATLEMQEQYADRPIITMSMAKTGVISRLAGEVFGSAATFGAVKKASAPGQISVNDLRTVLTILHQA
B10: lpxC F129A (protein)
chain: MIKQRTLKRIVQATGVGLHTGKKVTLTLRPAPANTGVIYRRTDLNPPVDFPADAKSVRDTMLCTCLVNEHDVRISTVEHLNAALAGLGIDNIVIEVNAPEIPIMDGSAAPFVYLLLDAGIDELNCAKKAVRIKETVRVEDGDKWAEFKPYNGFSLDFTIDFNHPAIDSSNQRYAMNFSADAFMRQISRARTFGFMRDIEYLQSRGLCLGGSFDCAIVVDDYRVLNEDGLRFEDEFVRHKMLDAIGDLFMCGHNIIGAFTAYKSGHALNNKLLQAVLAKQEAWEYVTFQDDAELPLAFKAPSAVLA
B11: lpxC F129W (protein)
chain: MIKQRTLKRIVQATGVGLHTGKKVTLTLRPAPANTGVIYRRTDLNPPVDFPADAKSVRDTMLCTCLVNEHDVRISTVEHLNAALAGLGIDNIVIEVNAPEIPIMDGSAAPFVYLLLDAGIDELNCAKKWVRIKETVRVEDGDKWAEFKPYNGFSLDFTIDFNHPAIDSSNQRYAMNFSADAFMRQISRARTFGFMRDIEYLQSRGLCLGGSFDCAIVVDDYRVLNEDGLRFEDEFVRHKMLDAIGDLFMCGHNIIGAFTAYKSGHALNNKLLQAVLAKQEAWEYVTFQDDAELPLAFKAPSAVLA
B12: lpxC L84A (protein)
chain: MIKQRTLKRIVQATGVGLHTGKKVTLTLRPAPANTGVIYRRTDLNPPVDFPADAKSVRDTMLCTCLVNEHDVRISTVEHLNAAAAGLGIDNIVIEVNAPEIPIMDGSAAPFVYLLLDAGIDELNCAKKFVRIKETVRVEDGDKWAEFKPYNGFSLDFTIDFNHPAIDSSNQRYAMNFSADAFMRQISRARTFGFMRDIEYLQSRGLCLGGSFDCAIVVDDYRVLNEDGLRFEDEFVRHKMLDAIGDLFMCGHNIIGAFTAYKSGHALNNKLLQAVLAKQEAWEYVTFQDDAELPLAFKAPSAVLA
B13: lpxC L84Q (protein)
chain: MIKQRTLKRIVQATGVGLHTGKKVTLTLRPAPANTGVIYRRTDLNPPVDFPADAKSVRDTMLCTCLVNEHDVRISTVEHLNAAQAGLGIDNIVIEVNAPEIPIMDGSAAPFVYLLLDAGIDELNCAKKFVRIKETVRVEDGDKWAEFKPYNGFSLDFTIDFNHPAIDSSNQRYAMNFSADAFMRQISRARTFGFMRDIEYLQSRGLCLGGSFDCAIVVDDYRVLNEDGLRFEDEFVRHKMLDAIGDLFMCGHNIIGAFTAYKSGHALNNKLLQAVLAKQEAWEYVTFQDDAELPLAFKAPSAVLA
B14: lpxC I186A (protein)
chain: MIKQRTLKRIVQATGVGLHTGKKVTLTLRPAPANTGVIYRRTDLNPPVDFPADAKSVRDTMLCTCLVNEHDVRISTVEHLNAALAGLGIDNIVIEVNAPEIPIMDGSAAPFVYLLLDAGIDELNCAKKFVRIKETVRVEDGDKWAEFKPYNGFSLDFTIDFNHPAIDSSNQRYAMNFSADAFMRQASRARTFGFMRDIEYLQSRGLCLGGSFDCAIVVDDYRVLNEDGLRFEDEFVRHKMLDAIGDLFMCGHNIIGAFTAYKSGHALNNKLLQAVLAKQEAWEYVTFQDDAELPLAFKAPSAVLA

The first data set deals with Escherichia coli (laboratory strain). As to the kind of experiment: barcode share on antibiotic plates over drug-free plates; higher = less susceptible. Conditions: antibiotic: carbenicillin; 2× MIC (3.1 µg/mL). On the procedure:
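A pool of E. coli strains, each edited to carry one amino-acid change in an essential protein, was grown for 48 h on minimal glucose agar with or without antibiotic; strain barcodes were sequenced; mean of two replicates.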
With B1, the “fold change of barcode share” value came out at 0.342 ± 0.17.
As for B2, the “fold change of barcode share” value amounted to 0.905 ± 0.95.
Take B3: the “fold change of barcode share” value stood at 0.195 ± 0.1.
Same read-out and setting: in the case of B4 it was 0.585 ± 0.51; in that of B5, 0.395 ± 0.15; in that of B6, 0.293 ± 0.19.
On the same count and under the same terms, in the case of B7 it was 0.216 ± 0.03.
On the same count and under the same terms, the result for B8 reads 0.476 ± 0.27.
B9: the “fold change of barcode share” value came to 0.505 ± 0.13.
Same read-out and setting: in the case of B10 it was 0.512 ± 0.19.
For B11, the “fold change of barcode share” value came out at 0.237 ± 0.076.
In the case of B12, the “fold change of barcode share” value stood at 1.12 ± 0.48.
The same measure, in the same setting: the result for B13 reads 0.966 ± 0.091; that for B14, 0.396 ± 0.15.

Still in this data set, the particulars now being: antibiotic: gentamicin; 2× MIC (MIC 0.45 µg/mL).
As to B1, the “fold change of barcode share” value is less than 0.00634.
For B2, the “fold change of barcode share” value is less than 0.0109.
The same measure, in the same setting: the result for B3 reads less than 0.00622; that for B4, less than 0.00658.
On the same count and under the same terms, in the case of B5 it was 0.0302 ± 0.032; in that of B6, less than 0.00909.
B7: the “fold change of barcode share” value was less than 0.0137.
Turning to B8, the “fold change of barcode share” value was less than 0.0095.
Still for that read-out and setting: in the case of B9 it was less than 0.00974.
Turning to B10, the “fold change of barcode share” value is less than 0.0125.
Turning to B11, the “fold change of barcode share” value is less than 0.00876.
Consider B12, for which the “fold change of barcode share” value amounted to 0.00434 ± 0.0024.
Still for that read-out and setting: in the case of B14 it was less than 0.0175.

Values taken from the supplement of paper PMC11876631.
